Measured values reported in the antibiotic and cytotoxicity screens of Wong et al. (2023).
The list shows a part of the results.

What follows are molecules tested on S. aureus RN4220 (assay: growth inhibition call (relative growth <= 0.2)). Settings: 50 µM.

Growth inhibition call, inactive:
CCS(=O)(=O)N1C[C@]2(CCN(CC2)Cc2cccc(c2)OC)c2c([nH]c3cc(ccc23)OC)[C@@H]1CO
C[C@H](CO)N1C[C@H](C)[C@H](CN(C)Cc2ccc(-c3ccccc3)cc2)Oc2ccc(NC(=O)c3ccncc3)cc2CC1=O
C[C@H]1CN([C@@H](C)CO)C(=O)c2c(c3ccccc3n2C)-c2ccccc2CO[C@@H]1CN(C)Cc1ccccc1
CCC(=O)N1CCC(C(=O)O)CC1
CN1CCN(C(=O)C[C@@H]2CC[C@@H]3[C@@H](COc4ccc(NC(=O)c5cscn5)cc4C(=O)N3C)O2)CC1
C[C@H](CO)N1C[C@H](C)[C@H](CN(C)C(=O)c2ccccc2F)Oc2ncc(C#Cc3ccncc3)cc2C1=O
CN1C(=O)c2cc(NC(=O)c3cscn3)ccc2OC[C@@H]2O[C@H](CC(=O)N3CCOCC3)CC[C@H]21
Cc1noc(C)c1NC(=O)Nc1ccc2c(c1)C(=O)N([C@@H](C)CO)C[C@@H](C)[C@H](CN(C)CC1CC1)OCCCC[C@H](C)O2
C[C@H]1CN([C@@H](C)CO)C(=O)Cc2cc(NC(=O)Cn3cnnn3)ccc2O[C@H]1CN(C)CC1CC1
C[C@@]1(O)N(CC(=O)O)C(=O)OC12CCCCC2
C[C@H](CO)N1C[C@H](C)[C@@H](CN(C)S(=O)(=O)c2cn(C)cn2)Oc2c(NC(=O)Nc3ccc(F)cc3)cccc2C1=O
C[C@@H]1CCCCO[C@H](CN(C)C(=O)NC2CCCCC2)[C@H](C)CN([C@@H](C)CO)C(=O)c2cc(NC(=O)C3CCCCC3)ccc2O1
Cc1noc(C)c1NC(=O)Nc1ccc2c(c1)C(=O)N([C@H](C)CO)C[C@H](C)[C@H](CN(C)CC1CCCCC1)OCCCC[C@@H](C)O2
COCCNCCn1cnc2c1c(=O)[nH]c(=O)n2C
CC(O)C(N)C(=O)O (centres undefined)
COCCOC(=O)N1C(=O)[C@@]2(c3cc(C#CC4=CCCCC4)ccc31)[C@H](c1ccccc1OCCO)N1[C@H](c3ccccc3)[C@H](c3ccccc3)OC(=O)[C@H]1[C@@H]2C(=O)N1CCc2cc(OC)c(OC)cc2C1
COc1ccc(CN(C)C[C@@H]2Oc3c(NS(=O)(=O)c4cn(C)cn4)cccc3C(=O)N([C@@H](C)CO)C[C@@H]2C)cc1
C[C@@H]1CN([C@@H](C)CO)C(=O)Cc2cc(NC(=O)Nc3ccc(C(F)(F)F)cc3)ccc2O[C@H]1CN(C)C(=O)Nc1cccc2ccccc12
Cc1ccc(-c2ccc3c(c2)O[C@@H](CN(C)C(=O)CN(C)C)[C@@H](C)CN([C@H](C)CO)S3(=O)=O)cc1
COc1ccc(NC(=O)N(C)C[C@@H]2Oc3ccc(NC(=O)CCCCCC(=O)Nc4ccccc4N)cc3CC(=O)N([C@@H](C)CO)C[C@@H]2C)cc1
COc1ccccc1CN1C(=O)c2ccccc2[C@@]2(Cc3ccccc3N(C(C)C)C2=O)[C@@H]1c1ccc(CO)cc1
C[C@@H]1CCCCO[C@@H](CN(C)C(=O)Nc2cccc3ccccc23)[C@@H](C)CN([C@H](C)CO)C(=O)c2cc(NS(=O)(=O)c3ccc(Cl)cc3)ccc2O1
Cc1noc(C)c1S(=O)(=O)Nc1ccc2c(c1)CC(=O)N([C@H](C)CO)C[C@H](C)[C@@H](CN(C)Cc1ccccc1)O2
COc1ccc(NC(=O)N(C)C[C@@H]2OCCCC[C@@H](C)Oc3ccc(NC(=O)Nc4ccc(C(F)(F)F)cc4)cc3C(=O)N([C@H](C)CO)C[C@@H]2C)cc1
COc1ccc2c3c([nH]c2c1)[C@@H](CO)N(C[C@]13CCN(CC1)C(=O)Nc1cccc(c1)F)C(=O)c1ccc(cc1)F
CN(C)CCCNC(=O)C[C@@H]1CC[C@H]2[C@@H](COC[C@@H](O)CN2S(=O)(=O)c2ccc(F)cc2)O1
COc1ccc(S(=O)(=O)Nc2ccc3c(c2)C(=O)N([C@@H](C)CO)C[C@@H](C)[C@H](CN(C)C(=O)Nc2ccc(C(F)(F)F)cc2)OCCCC[C@H](C)O3)cc1
COc1ccc([Si](C)(C)[C@H]2[C@H](CCn3cc(CCO)nn3)O[C@@]3(C(=O)N(C)c4ccccc43)[C@@H]2C)cc1
Cc1noc(C)c1NC(=O)N(C)C[C@@H]1Oc2c(NS(=O)(=O)c3cn(C)cn3)cccc2C(=O)N([C@H](C)CO)C[C@@H]1C
